Whole data set: some 16,000 sequences, median “Z-score” near -0.37, cut for the highest 2% near 3.1. The list shows a part of the results.
system: RBM10 RRM1-ZnF-RRM2 (GST-tagged construct); assay: RNAcompete 7-mer binding Z-score; higher = stronger binding preference
Method: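 RNAcompete: 20 pmol GST-tagged RBM10 RNA-binding constructs were incubated with a designed RNA pool of about 241,000 sequences up to 41 nt (1.5 nmol) on glutathione beads for 30 min at 4 °C and washed. Bound RNAs were identified by microarray hybridisation. Each RNA 7-mer is scored by a one-sided Z-score of its enrichment, computed over probes that contain the 7-mer within longer pool sequences.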

Sequence	RNAcompete 7-mer binding Z-score
AAUCACG	-0.198
GACUAUU	-0.803
UGCACAG	-0.0233
AGCUCAG	-0.486
UCCGUGG	0.133
GCAGUGA	0.439
AAGCAUG	-0.0233
GUGUACG	0.956
GCAGGUG	1.86
CGGAAAG	1.91
GCUUAGU	-0.278
CGCGAAC	-0.435
ACAUCGG	0.184
AAAGAAU	-0.144
CUUAGUU	-0.471
UUUUGAC	-0.905
UUUUGGG	0.701
UUCAUUU	-0.737
UUCACUU	-0.792
UAAAGGC	0.745
UACCGUA	-0.42
UCAUGAA	-0.402
UUUUCUU	-0.701
CCCUCCG	-0.57

Sequence	RNAcompete 7-mer binding Z-score
UAAAUUC	-0.504
CACAGGA	0.476
GACUGCC	-0.788
CAGCCCG	-0.541
UUCCUAC	-0.792
CGACGUC	-0.734
UGGCCUA	-0.278
CGCUAUG	-0.344
CGACCAC	-0.413
UAGAUUG	0.126
AGCUCCU	-0.752
AAUCUCC	-0.814
GCAUUUA	-0.661
CUGUCUU	-0.959
CCUACUA	-0.912
GGAGAAA	1.66
GAAUAGA	0.76
CCUAAAG	-0.541
GACGAAG	1.49
AUCAUAU	-0.402
ACAUUAU	-0.515
CUAUAAU	-0.635
ACAAGUG	0.465
UGCGGUA	0.556

Sequence	RNAcompete 7-mer binding Z-score
AGGUUCC	-0.00877
GUCACAC	-0.307
CGAGAUC	-0.391
AAUGUCU	-0.661
CCGAUUA	-0.42
ACCUCAG	-0.694
AGAUCGU	-0.333
GCGUAAG	0.578
AAUUAAG	-0.0488
UAGUCUU	-0.748
ACAGGGU	3.11
CCUCGCC	-0.628
GUUCCCG	-0.606
CAAGCUU	-0.989
CUCACCA	-0.712
CGGGAGU	1.5
GAGAGAU	0.592
AUGGUUU	1.43
CUGCCAC	-0.836
GUAAGCA	0.392
UACGGAU	0.665
AGAAUUG	0.345
CUAUAAA	-0.457
AUCUAGA	-0.592

Sequence	RNAcompete 7-mer binding Z-score
UGCAUUU	-0.905
UCAUGGU	0.0495
CCGCGGC	-0.307
AGCCUCG	-0.865
AGAGCCA	-0.766
UAGAUCG	-0.286
UUACAAA	-0.329
UUGCUGG	-0.205
AUUGUCC	-0.817
ACUGACC	-0.857
ACGGCUG	0.0349
AGGUCAG	0.76
GUAUGAU	0.224
CAUCGCA	-0.624
GUAACGG	1.7
CCUGUAU	-0.806
ACUAUUU	-0.872
CCAGCAG	-0.0998
GCCGAUG	0.0604
UUAGGAG	2.01
UAUGGGG	3.19
AACACAG	0.374
ACGAACU	-0.482
AAUAUGG	1.27

Sequence	RNAcompete 7-mer binding Z-score
UGUUUAA	-0.541
UUGGUGG	2.09
UAGCGUA	-0.147
ACGCCUC	-0.806
GUUGCUG	-0.133
GUAGUGA	1.1
AAAAAUA	-0.271
GACAUAG	0.505
CCGAUUC	-0.81
UAGACGU	-0.118
UUACUAC	-0.774
CAGAGUA	0.483
AAGAACU	-0.344
ACGAAGA	-0.289
CGAAUCA	-0.304
CGGCUGA	-0.0306
AUCAUUG	-0.431
UGAGUAA	0.425
UCCGGUU	-0.358
AGAAGAA	1
GACACCG	-0.442

Reference: the supplement of paper PMC5499739
